The supplement of paper PMC3334620
The full ranking holds about 33,000 sequences; the median of “E-score (-0.5 to 0.5)” is about -0.035, and the highest 2% start at about 0.35. The list shows a part of the results.

What follows are sequences tested against T1, Pdr3 (UniProt P33200) (assay: PBM E-score (8-mer binding enrichment) (E-score (-0.5 to 0.5)); higher = stronger / more preferred TF binding; most listed sequences are background and not binding sites). Settings: protein concentration: 200 nM; construct: GST-full length.
T1 sequence: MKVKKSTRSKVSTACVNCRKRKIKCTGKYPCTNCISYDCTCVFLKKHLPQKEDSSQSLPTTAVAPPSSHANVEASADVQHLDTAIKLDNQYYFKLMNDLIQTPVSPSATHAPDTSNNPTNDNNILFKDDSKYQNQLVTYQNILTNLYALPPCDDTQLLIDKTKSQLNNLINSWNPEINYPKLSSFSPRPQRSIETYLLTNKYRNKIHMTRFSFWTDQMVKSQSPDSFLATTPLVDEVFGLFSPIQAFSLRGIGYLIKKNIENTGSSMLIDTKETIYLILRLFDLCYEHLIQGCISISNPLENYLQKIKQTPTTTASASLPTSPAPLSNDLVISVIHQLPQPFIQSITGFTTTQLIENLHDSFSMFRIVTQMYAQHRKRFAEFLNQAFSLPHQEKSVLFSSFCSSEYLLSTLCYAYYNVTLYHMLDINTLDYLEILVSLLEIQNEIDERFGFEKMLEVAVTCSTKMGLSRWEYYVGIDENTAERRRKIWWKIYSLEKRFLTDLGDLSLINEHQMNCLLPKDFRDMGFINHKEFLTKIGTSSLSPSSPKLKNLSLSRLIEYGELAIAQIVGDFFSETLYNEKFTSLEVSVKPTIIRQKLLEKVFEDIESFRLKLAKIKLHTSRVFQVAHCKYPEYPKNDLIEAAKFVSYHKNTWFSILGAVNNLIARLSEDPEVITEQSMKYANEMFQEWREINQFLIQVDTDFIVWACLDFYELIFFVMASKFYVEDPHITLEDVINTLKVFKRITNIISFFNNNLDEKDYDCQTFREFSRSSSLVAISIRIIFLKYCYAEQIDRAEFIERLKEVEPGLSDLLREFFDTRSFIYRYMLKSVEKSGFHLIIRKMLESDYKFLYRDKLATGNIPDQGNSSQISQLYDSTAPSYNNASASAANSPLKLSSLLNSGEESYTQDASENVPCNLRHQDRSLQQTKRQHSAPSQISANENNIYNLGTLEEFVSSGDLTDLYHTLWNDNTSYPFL
Protocol: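 Universal 'all 10-mer' protein binding microarrays (Agilent AMADID 015681) probed with GST-tagged S. cerevisiae TFs (full-length or DBD) made by in vitro transcription/translation (PURExpress), about 100-200 nM. Bound TF was detected with fluorescent anti-GST. Each ungapped 8-mer (which stands for itself and its reverse complement) is scored by the PBM enrichment score (E-score), a modified Wilcoxon-Mann-Whitney statistic from -0.5 to +0.5, computed with the Universal PBM Analysis Suite. Scale: above 0.35 generally sequence-specific binding.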

Sequence | PBM E-score
ACTTCACG | -0.11
CTTTAGTC | -0.276
ATGCCGCG | 0.346
GAGGTAGA | 0.082
CGAATGCC | 0.112
CCTCATCG | 0.0337
ACTACTGG | -0.208
ATCGAGGG | 0.0924
CTGTCAGC | -0.0336
CGCAACCC | 0.145
CTAGACTA | -0.12
GCCAGTAC | -0.0709
CTAGGGGC | -0.0925
CTTAAACA | -0.0118
GACTGGAC | -0.158
CGTTTAGC | -0.00911
AAATTGAG | -0.11
ATTAGCGG | 0.14
CATAAACA | -0.0619
ACAGGTCT | -0.135
GTGGAAAC | 0.0684
GAGTACAC | -0.115

Sequence | PBM E-score
CTAGGTTA | 0.0843
AATGCACA | 0.0104
AGCTAATA | -0.069
CATCGGAA | 0.422
AACCCTTG | -0.139
ATCAGGCG | -0.0646
ATAACCGC | 0.131
TAACGGCA | 0.0384
AACCTGCG | 0.186
ACTCTTAA | -0.273
ACTCATGC | -0.166
ACACTCAC | 0.0722
CCGAGTCG | 0.134
AAGTGGTG | 0.0797
CAGCCAAA | 0.00884
CGCTTTCC | 0.218
AGACGCAC | -0.0855
CCTCGCCA | -0.179
GGCGGCTA | 0.0717
AGATCCTA | -0.277
ACCCACGC | -0.0677
CACCTTGA | -0.106

Sequence | PBM E-score
TTCGAGAA | -0.192
CCACGTGG | -0.375
AACACGGG | 0.116
GGGTCATA | -0.0563
ACAAATCC | 0.0765
CCGTAAGC | -0.0323
GTGGTCGA | -0.172
ATAGACTA | -0.333
CCCACTAC | -0.0207
CATCTACA | -0.125
AAGCAAGT | -0.159
ATCCAAGC | -0.212
GACTGGCC | 0.0864
CCACGTGC | -0.171
GCATCAAA | 0.0575
AAGACTAC | -0.188
AACCAACT | 0.00667
GTAGAGAC | -0.309
CACTACCA | 0.0149
AAGTGTGC | 0.1
GCTGTTAC | -0.11
ACGCATCC | 0.00027

Sequence | PBM E-score
CCTTTTGA | -0.184
CAGCGTGG | -0.263
ATTTGGTC | 0.203
ACATAACC | 0.0878
TCGATTAA | 0.137
AGTGCGCC | 0.0425
CGGCTATA | 0.179
AACCCCTT | -0.0379
CTCCAAAA | -0.184
CAAGCACC | -0.252
CTTACCTA | -0.0586
GACTCGAC | -0.0844
GCCGAGAA | 0.226
AGTTTCTA | -0.212
CTTTCAGC | -0.0831
GGTCTAAC | -0.031
ACCACACG | -0.103
GCCTGGTA | -0.285
CATGGAGG | -0.121
CTAGCGCC | -0.116
